Experimental findings from PubChem BioAssay AID1645882 (National Center for Advancing Translational Sciences (NCATS), 2021) are described below.

“And” between values parts separate entries of the source, which are not always exact repeats. Equal values may be shown once. Out of some 16,000 compounds screened, about 120 (0.75%) were called active. Another 4% or so got no clear call; they are omitted. Calls come from the whole dose curve; as a rule, active = well fitted inhibition curve with a large enough effect; inconclusive = small, poorly fitted or top-dose-only effect; inactive = no such curve, though single readings can be large or run the other way. Some of the results follow. More than one record can exist for a structure, and the calls need not agree.
Potency is the fitted concentration of half-maximal effect.

For this assay, the target named is Rap guanine nucleotide exchange factor 3 (Homo sapiens) (UniProt O95398). Nature of the assay: Validation qHTS for antagonist of cAMP-regulated guanine nucleotide exchange factor 3 (EPAC1).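 For activity change, negative = inhibition: plate controls were DMSO for no effect and ATA control for full effect.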 Note: nearly all actives have a fitted effect of over 75% in size. Conditions: EPAC1 Rap1B-BODIPY-GDP exchange, fluorescence; series mostly up to 150 µM; activity change, negative = inhibition: at the top concentration. Put shortly: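 Nucleotide exchange followed as fluorescence loss when BODIPY-GDP leaves Rap1B (480 nm excitation, 540 nm emission), read at 5 min intervals over 30 min. Reaction: 100 nM EPAC1, 250 nM RAP1B-BODIPY-GDP, 50 uM GDP; ATA and DMSO define normalization.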
Sequence of UniProt O95398 (O95398 whole entry, looked up): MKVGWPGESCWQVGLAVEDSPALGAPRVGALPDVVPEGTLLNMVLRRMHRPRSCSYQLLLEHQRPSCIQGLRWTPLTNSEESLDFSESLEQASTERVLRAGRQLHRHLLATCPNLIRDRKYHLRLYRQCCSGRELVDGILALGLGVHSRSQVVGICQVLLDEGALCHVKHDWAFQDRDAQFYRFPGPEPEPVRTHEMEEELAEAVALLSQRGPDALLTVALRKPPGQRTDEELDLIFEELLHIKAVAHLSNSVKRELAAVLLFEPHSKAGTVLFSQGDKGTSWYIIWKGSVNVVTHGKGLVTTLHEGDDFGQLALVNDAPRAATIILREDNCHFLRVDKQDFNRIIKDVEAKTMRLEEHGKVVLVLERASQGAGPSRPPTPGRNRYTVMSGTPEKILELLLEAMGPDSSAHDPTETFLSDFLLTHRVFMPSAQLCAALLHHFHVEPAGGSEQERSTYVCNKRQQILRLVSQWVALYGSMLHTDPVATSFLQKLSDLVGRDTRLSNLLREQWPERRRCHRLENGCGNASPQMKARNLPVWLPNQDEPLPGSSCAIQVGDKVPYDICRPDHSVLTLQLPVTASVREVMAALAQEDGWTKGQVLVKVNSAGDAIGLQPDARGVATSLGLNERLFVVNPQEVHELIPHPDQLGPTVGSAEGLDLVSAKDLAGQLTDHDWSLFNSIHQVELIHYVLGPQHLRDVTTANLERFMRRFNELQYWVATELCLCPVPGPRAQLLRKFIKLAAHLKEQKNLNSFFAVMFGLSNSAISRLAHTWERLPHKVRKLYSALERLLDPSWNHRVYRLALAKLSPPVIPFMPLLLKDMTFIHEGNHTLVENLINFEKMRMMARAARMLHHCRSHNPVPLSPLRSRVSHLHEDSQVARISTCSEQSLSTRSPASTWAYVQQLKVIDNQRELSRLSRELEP
A general note: qHTS replaces the single test concentration by a dilution series.
Consider `O=C(Nc1ccccc1)N1CC[C@@]2(CCCN(C(=O)c3cccc(F)c3)C2)C1`, for which the “activity change, negative = inhibition” value was inactive: 17.9%.

On to `O=[N+]([O-])c1ccc2c(c1)C=CC2`, for which the “activity change, negative = inhibition” value is inactive: -20.6%.

For the compound `N=c1c[n+](N2CCOCC2)[n-]o1`, the “activity change, negative = inhibition” value is inactive: 4.62% [at 75.8 µM].

For `O=C(c1cc(C(F)(F)F)cc(C(F)(F)F)c1)N1CCC2(CCN(Cc3ccccc3)CC2)CC1`, the “activity change, negative = inhibition” value is inactive: 8.89%.

As for `Clc1ccc2nc(-c3ccccc3)[nH]c2c1`, the “activity change, negative = inhibition” value is inactive: 3.75%.

As for `CN1CCN(CCCN2c3ccccc3Sc3ccc(Cl)cc32)CC1`, the Potency result is “inactive and active: 112 µM”.

On to `CCN(c1ccccc1)c1cc(NC)[n+](C)c(C)n1`, for which the “activity change, negative = inhibition” value was inactive: 10.3%.

As for `CC(=O)OCC1=C(C(=O)O)N2C(=O)C(NC(=O)CSc3ccncc3)[C@@H]2SC1` (some centres not stated), the “activity change, negative = inhibition” value was inactive: 14.9%.

On to `CCCCNC(=O)[C@@H]1CC=C[C@@H]2CCN(Cc3ccc(Cl)c(Cl)c3)C(=O)[C@@H]21`, for which the “activity change, negative = inhibition” value was inactive: 9%.

With `COc1ccc(CNc2ccnc(-c3ccc(N(C)C)cc3)n2)c(OC)c1`, the “activity change, negative = inhibition” value is inactive: -8.34%.

Regarding `COC(=O)c1ccccc1C(=O)NCC1Cc2cc(-c3nc(C)cnc3C)ccc2O1` (configuration not stated), the “activity change, negative = inhibition” value was inactive: 14%.

Consider `COc1cccc(CNc2ncnc3sc(C(=O)N4CC5CCC4C5)c(C)c23)c1OC` (configuration not stated), for which the “activity change, negative = inhibition” value is inactive: 9.06%.

Regarding `C=C1[C@@H](O)[C@H](CC(C)C)N(Cc2ccccc2Br)S1(=O)=O`, the Potency is active: 89.1 µM.

Consider `Cc1cc[n+](CC(=O)c2ccccc2)c2ccccc12`, for which the “activity change, negative = inhibition” value was inactive: 8.59%.

For the compound `COc1ccccc1C1CN(CC(=O)NCC2OCCc3ccccc32)Cc2ccccc2O1` (configuration not stated), the “activity change, negative = inhibition” value is inactive: 3.73%.

As for `C[C@H](CN1CCCC1)C(=O)c1ccc(C(F)(F)F)cc1`, the “activity change, negative = inhibition” value is inactive: 32.2%.

For the compound `CC(=O)N[C@@H](C)C(=O)NCC1Cc2cc(C)cc(-c3cnccn3)c2O1` (some centres not stated), the “activity change, negative = inhibition” value was inactive: -0.941%.

Consider `COc1ncc2ncc(=O)n(C[C@H]3CCCO3)c2n1`, for which the “activity change, negative = inhibition” value is inactive: 12.8%.

Turning to `COc1ccc(-c2nc3cncnc3n(-c3ccccc3)c2=O)cc1`, the “activity change, negative = inhibition” value was inactive: 6.72%.

In the case of `CC(=O)OCC(CCn1cnc2cnc(N)nc21)COC(C)=O`, the “activity change, negative = inhibition” value is inactive: 11.1%.

Regarding `NNc1nncc2ccccc12`, the activity change, negative = inhibition result is “inactive”.

Turning to `COCC(=O)N1CCC[C@@]2(CCN(C(=O)Nc3ccccc3)C2)C1`, the “activity change, negative = inhibition” value is inactive: 1.91%.

`Cc1ccc(CN2CCOc3ccc(CN4CCC(O)(c5cccnc5)CC4)cc3C2)cc1`: the “activity change, negative = inhibition” value was inactive: 9.12%.

For the compound `N[C@](CC1c2ccccc2Oc2ccccc21)(C(=O)O)[C@H]1C[C@@H]1C(=O)O`, the “activity change, negative = inhibition” value is inactive: 25%.

Turning to `O=C(/C=C/c1ccc(O)c(O)c1)OCCc1ccccc1`, the activity change, negative = inhibition entry was “inactive”.

`COc1cccc(Cn2c(=O)c(-c3cccs3)nc3cnc(Nc4ccccc4)nc32)c1`: the “activity change, negative = inhibition” value was inactive: 32.3%.

As to `CCC(=O)NCc1nc(-c2cccc(NC(=O)c3ccc(C)s3)c2)oc1C`, the “activity change, negative = inhibition” value was inactive: 9.29%.

For `NCC(O)CC(=O)O` (configuration not stated), the “activity change, negative = inhibition” value is inactive: 8.43%.

As for `COc1ccc(CN2CC[C@H]3C=CC[C@@H](C(=O)N4CCN(c5ccccc5)CC4)[C@H]3C2=O)cc1OC`, the “activity change, negative = inhibition” value was inactive: 11.7%.

In the case of `[C-]#[N+]c1cc(-c2ccncc2)c(C)[nH]c1=O`, the “activity change, negative = inhibition” value was inactive: 15.7% [at 320 µM].

Take `COCCn1c(=O)cnc2cnc(Oc3ccc(OC)cc3)nc21`: the “activity change, negative = inhibition” value is inactive: -2.81%.

In the case of `C[C@H](CCC(=O)O)[C@H]1CC[C@H]2[C@@H]3[C@H](O)C[C@@H]4C[C@H](O)CC[C@]4(C)[C@H]3CC[C@]12C`, the “activity change, negative = inhibition” value is inactive: 12.6% [at 75.8 µM].

As for `Cc1ccc(C(=O)Nc2cnn(-c3ccc(C(=O)N(C)Cc4n[nH]c5c4CCCC5)cc3)c2)c(C)c1`, the “activity change, negative = inhibition” value was inactive: -5.63%.

Take `COc1ccccc1C1CN(CCNC(=O)[C@@H]2CSC(=O)N2)Cc2ccccc2O1` (some centres not stated): the “activity change, negative = inhibition” value is inactive: 5.26%.

Turning to `C[N+](C)(C)CC[N+]1(C)Cc2c(Cl)c(Cl)c(Cl)c(Cl)c2C1`, the activity change, negative = inhibition result was “inactive”.

As for `Cc1cccc(CNC(=O)c2c3n(c(C)cc2=O)-c2ccccc2SC(c2sccc2C)C3)n1` (configuration not stated), the “activity change, negative = inhibition” value is inactive: 12.5%.

As for `CN1CCN(c2c(F)cc3c(=O)c(C(=O)O)cn(CCF)c3c2F)CC1`, the “activity change, negative = inhibition” value is inactive: 13.5%.

With `CC1=C(/C=C/C(C)=C/C=C/C(C)=C/C=C/C=C(C)/C=C/C=C(C)/C=C/C2=C(C)C(=O)C(O)CC2(C)C)C(C)(C)CC(O)C1=O` (configuration not stated), the “activity change, negative = inhibition” value is inactive: 17%.

`Nc1ncnc2c1c(I)cn2[C@@H]1C[C@H](N)[C@@H](O)[C@H]1O`: the “activity change, negative = inhibition” value was inactive: -1.55% [at 75.8 µM].

For the compound `CN(C)c1ccc(-c2nc(N(C)Cc3ccco3)c3ccccc3n2)cc1`, the “activity change, negative = inhibition” value was inactive: -18.7%.

With `CNc1cc(OC)c(C(=O)N[C@H]2CCN(Cc3ccccc3)[C@H]2C)cc1Cl`, the “activity change, negative = inhibition” value was inactive: 14.6%.

Take `Clc1ccccc1-c1nc(-n2ccnc2)c2ccccc2n1`: the “activity change, negative = inhibition” value is inactive: -0.47%.

Turning to `Cc1noc(C)c1C(=O)N1CCC2(CCCN(C(=O)Nc3cccc(C#N)c3)C2)CC1`, the “activity change, negative = inhibition” value is inactive: -14.8%.

Turning to `COc1ccccc1CN1CC[C@@]2(CCCN(C(=O)c3ccco3)C2)C1`, the “activity change, negative = inhibition” value is inactive: 24.2%.

For the compound `COc1ccc(CCN(C)CCCC(C#N)(c2cc(OC)c(OC)c(OC)c2)C(C)C)cc1OC` (configuration not stated), the activity change, negative = inhibition result is “inactive”.

As for `Nc1cc(C(Cl)=C(Cl)Cl)c(S(N)(=O)=O)cc1S(N)(=O)=O`, the activity change, negative = inhibition entry was “inactive”.

Regarding `CCCCCCCCCCCCCCCCCC(=O)OCCO`, the “activity change, negative = inhibition” value is inactive: -13.4%.
